According to PubChem BioAssay AID1814 (Broad Institute, 2009):
About 22,000 (7.3%) of roughly 300,000 compounds were called active. This list was built around the results that the source calls inconclusive (neither active nor inactive); the mix of calls is not that of the screen. No stated cut-off is given here; in the data, active means activity score below about -60%; inconclusive means mostly about -28% to -61%; inactive means positive scores.

Experiment: Activators via SNCA 5'UTR binding, MLPCN (AID 1814)
Conditions: alpha-synuclein 5'UTR reporter, activators screen; stronger effect = lower value; tested at 7.5 µM

SMILES | activity score
C[n+]1cc[nH]c1SCC(=O)c1ccc(Cl)cc1 | inconclusive: -44.5%
CC(/C=N/NC(=O)c1ccncc1)=C\c1ccco1 | inconclusive: -49.4%
Cc1ccc(NC(=O)NCc2ccc3c(c2)OCO3)cc1 | inconclusive: -53.2%
CN(C)c1cccc2c(C=C(C#N)C#N)ccc(N(C)C)c12 | inconclusive: -41.4%
CCOc1ccc2nc(SCC(=O)NCc3ccco3)sc2c1 | inconclusive: -30.5%
Nc1nc(F)nc2c1ncn2[C@@H]1O[C@H](CO)[C@@H](O)[C@H]1O | inactive: 122%
CCc1ccc(C(O)(CC(C)C)C(CN2CCOCC2)c2ccccc2)cc1 (configuration not stated) | inactive: 56.5%
N/C(=N\OC(=O)c1cccs1)c1ccc(Cl)cc1 | active: -104%
COc1cc(O)c(C(CC(=O)N2CCN(c3ccccc3)CC2)c2ccc(N(C)C)cc2)c(OC)c1 (configuration not stated) | inconclusive: -27.6%
O=c1cc(CSc2nc3cc(Cl)ccc3o2)nc2sccn12 | inconclusive: -27.1%
O=C(COc1ccc(Oc2ccccc2)cc1)NCc1cn2ccccc2n1 | inactive: 62.4%
Cc1ccc(-c2cc(C(=O)Nc3ccccc3C)c3ccccc3n2)o1 | inconclusive: -30.7%
O=C(CSc1ccc(F)cc1)NCCSc1ccccc1 | inconclusive: -51.4%
COc1ccc(CCN2C(=O)c3cccc4cccc(c34)C2=O)cc1OC | inconclusive: -45.3%
CC(C)(C)C(=O)Nc1ccc(N=Nc2ccccc2)cc1 | inactive: 79.4%
Nc1ccc2oc(=O)c(-c3ccccc3)cc2c1 | inconclusive: -47.4%
COc1ccc(C=O)cc1COc1ccc(Cl)cc1[N+](=O)[O-] | inconclusive: -44.9%
Cc1cnc(C(=O)Nc2nnc(C(C)C)s2)cn1 | inconclusive: -57.5%
Cc1c(C(=O)N/N=C/c2ccc(N(C)C)cc2)[nH]c2ccc(Cl)cc12 | inactive: 73.5%
Cc1cc(N)n2nc(C(F)(F)F)nc2n1 | inconclusive: -37.3%
N#CC(c1cccc(Cl)c1)c1ccc2c(C(F)(F)F)cc(C(F)(F)F)nc2n1 (configuration not stated) | inactive: 97%

SMILES | activity score
Cc1ccc(NC(=S)NC(=O)/C=C/c2ccco2)c(O)c1 | inconclusive: -48.6%
COc1ccc(C(=O)NC(=S)Nc2ccc(S(N)(=O)=O)cc2)cc1 | inconclusive: -55.1%
O=C1Nc2ccc(Br)cc2C12NNc1ccccc1O2 (configuration not stated) | inconclusive: -40.6%
NS(=O)(=O)c1ccc2nc(NC(=O)Nc3ccccc3F)sc2c1 | inconclusive: -50%
COc1ccc(OC)c(Nc2cc(C)nc3ccc(C)cc23)c1 | inactive: 62.9%
CC(C)COCc1ccc(O)c2ncccc12 | inactive: 95.7%
CCc1cc2cc(C(=O)Nc3ccccc3F)sc2s1 | active: -134%
Cc1ccc(Nc2ncnc3c2cnn3C)cc1 | inconclusive: -38.5%
CC1=C(C)CC2(SC1)C(=O)N(c1ccccc1)N=C2N (configuration not stated) | inconclusive: -59.5%
O=C(Nc1cc(Cl)ccc1Cl)c1noc2c1CCCC2 | active: -67.3%
O=C(Nc1ccc(Cl)cc1[N+](=O)[O-])c1ccc2c(c1)OCCO2 | inconclusive: -59.8%
Cc1nn(-c2cc(C)c3ccccc3n2)c2c1C1C(C2)C1(C)C (configuration not stated) | inconclusive: -51.7%
COc1ccc(OCc2cc(C(=O)N(C)C3CCOCC3)no2)c2ccccc12 | inconclusive: -54.1%
CC(C)(C)C(=O)Nc1nnc(SCc2ccc(F)cc2)s1 | active: -81.8%
CN=c1sc(C(=O)Nc2cccc(Cl)c2)cc(=O)n1C | active: -140%
CC(=O)c1cccc(OCc2cc(C(=O)N(C)CCc3ccccn3)no2)c1 | inconclusive: -46.8%
Cc1ccc(N2C(=O)c3ccccc3C2O)nc1 (configuration not stated) | inactive: 72.7%
CCN(CC)C(=O)C(=O)Nc1ccc(OC)c(Cl)c1 | inconclusive: -59.3%
CC(=O)NCCc1nc2cc(NC(=O)c3ccccc3)ccc2n1C | inconclusive: -48.4%
c1cncc(-c2nc3ccccn3c2Nc2ccc3c(c2)OCCO3)c1 | inconclusive: -49.4%
N#Cc1c(NC(=S)NC(=O)Cc2cccs2)sc2c1CCCCC2 | inconclusive: -54.3%

SMILES | activity score
O=C(Nc1nccs1)c1ccc(Br)cc1 | active: -161%
O=C(Nc1ccc(Br)cc1)Nc1cnccn1 | inconclusive: -57.1%
COc1cccc(-c2noc(C3CCCN(C(=O)c4ccc(F)cc4)C3)n2)c1 (configuration not stated) | inconclusive: -40.7%
Cc1nc2cc(C(=O)O)ccc2s1 | active: -177%
Fc1ccc(-c2nnn(Cc3nc4ccccc4s3)n2)cc1 | inconclusive: -49.6%
O=C(/C=C/c1ccc([N+](=O)[O-])cc1)NCCOc1ccc(F)cc1 | inconclusive: -36.1%
O=C(CSc1ncn[nH]1)Nc1ccc(OCc2ccccc2)cc1 | inconclusive: -45.7%
CN(C)c1ccc(C(=O)Nc2ccc(CN3CCS(=O)(=O)CC3)cc2)cc1 | inconclusive: -45.2%
COc1ccc(-c2nc3ccccc3s2)cc1O | inactive: 85.4%
O=C(CSc1n[nH]c(-c2ccccn2)n1)Nc1ccc(F)cc1 | inactive: 72.8%
CC(C)(C)n1cnc2cc(NCc3cccs3)ccc21 | active: -102%
COc1cccc(NC(=O)c2ccc(NC(C)=O)cc2)c1 | inconclusive: -57%
Cc1cc(/C=C(\C#N)C(=O)Nc2ccccc2)c(C)n1-c1cccnc1 | active: -143%
COc1cc(C=O)ccc1OS(=O)(=O)c1ccccc1[N+](=O)[O-] | active: -119%
CNC[C@H](CC1CCCCC1)NC[C@H](Cc1ccccc1)NCCC12CC3CC(CC(C3)C1)C2 | inactive: 125%
Cc1cccc(C(=O)CC(=O)c2cc(Cl)ccc2O)c1 | inactive: 64%
Cn1c(=O)c2c(nc(N/N=C/c3ccc(OC(=O)c4ccco4)cc3)n2Cc2ccc(F)cc2)n(C)c1=O | inconclusive: -54.3%
CCOc1ccc(N(Cc2cc3ccc(C)cc3[nH]c2=O)S(=O)(=O)c2ccccc2)cc1 | inconclusive: -35.2%
CC(=O)Nc1sc(C)c(C)c1C(=O)OCCOc1ccccc1 | active: -130%
CCc1c(C)nc2nc(NC(C)=O)[nH]n2c1=O | inconclusive: -50%
